# Read counts are not given, so values of variants with three or more changes are uncertain.
# B1: LINE1-mini (parent)
# chain: GGCAGAGCUCAACACAGCGUGGCAAAGUGGCUGUGGCUAGACUGCC
# Variants of: B1
# Assay: self-cleavage, relative activity (ratio to wild type); higher = more cleavage; in vitro, sequencing; the parent is a self-cleaving ribozyme
row,Variant,self-cleavage
1,A6U C13G G27C G30C,0.02
2,G22C C31A A41C G44C,0.1
3,A16G G17C U28G,0.36
4,C8A A11G C46G,0.03
5,G21C U28A G36U,0.02
6,A16C C23A A25U,0.06
7,A25C G29U G30A,0.13
8,C3G G7A A39G,0.05
9,U20G U28A G30C,1.18
10,G2A C3U G22C G35U U38A,0.71
11,C8G G27U A39U,0.02
12,G7A C10G G40U,0.01
13,C3A C10U G22U,0.07
14,G1A A11G G27A,0.04
15,G1U A12C U38A A39U,0.01
16,C3U G7C G19U G30A U38C,0.14
17,A14U U20A G22U G36U,0.03
18,G5A C8G A26U,0.05
19,G1U G40C U43G,0.05
20,G36C G40A G44U,0.07
21,G1C C13G A26G G30A A41U,0.03
22,G30C G33C G40U,0.07
23,G1U A26U C37U,0.12
24,C15U A16C G27C,0.06

row,Variant,self-cleavage
1,G1A A4G G29A G30C G35A,0
2,A4G A11G A16U G30U,0.02
3,A16G C18A A25G C31U,0.04
4,A14U U32C C42A,0.03
5,G5U A14C A39U,0.06
6,C10U C18U U28A G33C G36U,0
7,C3G G17A A24G G35A,0.05
8,G1U C10A A12U G27A G29A,0.01
9,C18U G36U C45U C46A,0.11
10,G2U A11C A12C U20C A24U,0.01
11,C42A C45A C46G,0.06
12,G7C C23A G27C U32A,0.05
13,C15A A24U A26U U32A,0.01
14,C18A U20C A24U,0.29
15,G7A A16C G30U,0.31
16,G5U A16C G19U A25U,0.03
17,G7U G17C A24U U34G C42A U43A,0.08
18,U9A A41U C42G,0.01
19,G7U G21U U38A C42G,0.02
20,G2A C8U C13U A14C G35U,0.46
21,G2U C10G A16U G27A A39C,0.01
22,C8U C13A A25G,0.13
23,G17U G19U G21U C23G C31G,0.59
24,A11C C13G C18U G22U G27A G30U,0

row,Variant,self-cleavage
1,G1U C23A U28A G44C,0.27
2,G7U A14C C15A G22U C23A,0.02
3,A11C G27A A39U,0.03
4,G2A U9G G33A G40A,0.19
5,C31U U32C U38C,0.03
6,C3U G7A C46U,0.15
7,A4G A12C G19U U20A A39G C45A,0
8,C15A G17U U32G G44U,0.01
9,C10G G21A C23A,0.08
10,G5A C10G U28G C45G,0.02
11,G2A G30C G36A C45U,0.17
12,C3U U32A C46A,0.11
13,U9C A25U A39U C42U,0.03
14,A24G A26U G29U,0.45
15,C10G A12U C18U A26G C37A,0
16,C18G G29U G33A,0.03
17,C3A A26C G27C U28G C37A U43A,0.07
18,U9A G19C G27C U28G G40A,0.01
19,G5U G27A G33U G44A,0.06
20,A14U A16G U20G G22A A39G,0
21,A11U C13G A24U G33C G40A C42U,0
22,G19C A25C G30A,0.19
23,A6C A14G G36U A41U,0.04
24,G1U C31G U32G,0.05

row,Variant,self-cleavage
1,A6C C13G C15A C23A,0.03
2,C3A U20A G44A,0.38
3,G7U C8A C10U G21U C23A,0.05
4,C13A C15A A26G G30U G33U A39C,0.08
5,A25U U28G G44U,0.54
6,G22U U34A A41U C42U,0.05
7,U28A G33C A41G C45A,0.03
8,A39G G44U C45A,0.03
9,A11U G35U U38G A39C,0
10,C18U G30U G44C,0.16
11,G1U U9A C42A,0.02
12,A11C G17C G27A U32G G40C,0.01
13,C3G A4C A39C,0.07
14,C13A G27A G36C G40U,0.27
15,A14G C18G G36U,0.05
16,A4U G5U U9A C18A G22U A26C,0.12
17,C10G C13A C15U G21U,0.05
18,A16C C23U G40A C45G C46U,0.07
19,G2U C3A A24U A26C G27U,0.59
20,C31G C37U C46A,0.02
21,C8U C13A A24C,0.1
22,A4G C8U G19U G40A,0.29
23,G5A G7U G17U A25G,0.3
24,C3G U9C C37U,0.02

row,Variant,self-cleavage
1,C23A C42U C45G,0.09
2,G7A G17C A26C C31U,0.04
3,G1U A16C G36U G44A,0.05
4,G19C G29C G30U G40C A41C,0.08
5,C8A C13A C18A G29C,0.09
6,C10U G33A C37U,0.03
7,C8U C13U A25U C45A,0.37
8,G5C C13G U20G,0.02
9,C3U A14U G29U G30C,0.14
10,G2A C10A C45G,0.05
11,C3A A4U C46A,0.04
12,G5C C18U G22A A24C,0.12
13,A26G C31G C42G,0.04
14,G1C A6G C31G G35U C37A A41U,0
15,A14C C31A G36U,0.85
16,G19A C23U G35U,0.04
17,C3A G21U C45G,0.68
18,A11C G22C C23A A41G,0.05
19,G22A U32G U38A,0.1
20,C23A A39G G44U,0.03
21,G27C G33C G35A,0.05
22,G7C G36U U38C,0.07
23,G2U A12U C15G G29C C46U,0.01
24,G5A A14C G22C A39C,0.1

row,Variant,self-cleavage
1,G22C G44U C45A,0.01
2,G1A A6C A12C A26C U43A,0
3,G5U G7U A11G C45G,0.03
4,C10U U20G C23A A24C,0.34
5,C10A A12G C18U G36C A41G,0
6,G5A G30A G33C G40C,0.05
7,A4G A12U U20C,0.02
8,C13G U20A C31A U38A,0.02
9,C3G A12U A41C,0.11
10,C13A G17A C18A G22A,0.09
11,G19C G27U A41C,0.01
12,C10A A12G G35U,0.01
13,U9C C15U C45G,0.02
14,C8U C13A A41G,0.12
15,G1C C13A C18G G19C G40A C46G,0
16,G7U C8G U20C G29A U34G,0.06
17,C13U U34G C45G,0.03
18,G1A U9A G17A U28C U38A C45G C46U,0.45
19,G2A G5A G19A G21U,0.47
20,C8G G17C C18A,0.02
21,G5A C18A G21A C37A A41U C46G,0.01
22,G5A G22A C46G,0.11
23,G7C G17A C18A U20A U34C G35C A41U C45G,0.01
24,A14C G27U G33U,0.02

row,Variant,self-cleavage
1,C10U C15A G19A,0.06
2,A6U G22U C23A,0.43
3,A11G A39U C46A,0
4,G1A C15U C42A,0.08
5,G1C C3G C18G,0.06
6,C8G U9C A41G U43A,0.02
7,G5A C13G G19U U28G G44A,0.02
8,G2U A6C C18A C37A,0
9,G22A A25C G33A,0.17
10,G7U A16C G17C G36C,0.05
11,G7U A14U G44C,0.07
12,G1C C18U A26C C31U,0.01
13,A14U G17U A24U,0.05
14,C13G A39U C46G,0.04
15,A11U C18G G27C,0.02
16,A6C G7U G22A A24U A25U C37U U43G,0
17,C10U A12G A25U,0.04
18,G2A C13U A24U A26G,0.35
19,G1U G2C C3U A12U A39C,0.13
20,G5C A12C U20C U32C,0.02
21,A4G C8A A16U G17U C18G,0.28
22,A4G A6U A12G U20A G22U C37U,0.02
23,A11U U20G C23G G27U C42G G44A,0.01
